Results reported in the antibiotic and cytotoxicity screens of Wong et al. (2023).
Some of the results follow.

Key:
HSkMC = human skeletal muscle cells; experiment: cytotoxicity call (relative viability < 0.9); details: 10 µM
S. aureus RN4220 = experiment: growth inhibition call (relative growth <= 0.2); details: 50 µM

SMILES: C[C@H](CO)N1C[C@H](C)[C@H](CN(C)S(=O)(=O)c2ccc(Cl)cc2)Oc2ccc(NC(=O)Cn3cnnn3)cc2CC1=O
- cytotoxicity call (HSkMC): inactive
- growth inhibition call (S. aureus RN4220): inactive

SMILES: CN(CC(=O)Nc1cccc(S(=O)(=O)N2CCOCC2)c1)CC(=O)Nc1ccc(Cl)c(C(F)(F)F)c1
- cytotoxicity call (HSkMC): inactive
- growth inhibition call (S. aureus RN4220): inactive

SMILES: Cc1noc(C)c1NC(=O)N(C)C[C@H]1OCCCC[C@@H](C)Oc2ccc(NS(=O)(=O)c3cccs3)cc2C(=O)N([C@@H](C)CO)C[C@@H]1C
- cytotoxicity call (HSkMC): inactive
- growth inhibition call (S. aureus RN4220): inactive

SMILES: CC(C)[Si]1(C(C)C)OCc2cc(-c3ccc(-c4ccc(Cl)c(Cl)c4)o3)nc(-c3ccc(Oc4ccccc4)cc3)c21
- cytotoxicity call (HSkMC): inactive
- growth inhibition call (S. aureus RN4220): inactive

SMILES: Cc1cc(C(=O)Nc2cccc3c2O[C@@H](CN(C)Cc2ccncc2)[C@H](C)CN([C@H](C)CO)C3=O)n(C)n1
- cytotoxicity call (HSkMC): inactive
- growth inhibition call (S. aureus RN4220): inactive

SMILES: COc1ccc(NC(=O)N(C)C[C@H]2Oc3c(NS(=O)(=O)c4cn(C)cn4)cccc3C(=O)N([C@@H](C)CO)C[C@H]2C)cc1
- cytotoxicity call (HSkMC): inactive
- growth inhibition call (S. aureus RN4220): inactive

SMILES: COc1ccc(S(=O)(=O)N(C)C[C@H]2OCCCC[C@H](C)Oc3ccc(NC(=O)Nc4c(C)noc4C)cc3C(=O)N([C@H](C)CO)C[C@@H]2C)cc1
- cytotoxicity call (HSkMC): inactive
- growth inhibition call (S. aureus RN4220): inactive

SMILES: Cc1ccc(Nc2c(-c3ccccc3)nc3ccccn23)cc1
- cytotoxicity call (HSkMC): inactive
- growth inhibition call (S. aureus RN4220): inactive

SMILES: C[C@@H]1CCCCO[C@H](CN(C)C(=O)Nc2ccc(C(F)(F)F)cc2)[C@@H](C)CN([C@H](C)CO)C(=O)c2cc(NS(=O)(=O)c3ccccc3)ccc2O1
- cytotoxicity call (HSkMC): inactive
- growth inhibition call (S. aureus RN4220): inactive

SMILES: C[C@@H]1CN([C@@H](C)CO)C(=O)c2cc(NC(=O)C3CC3)ccc2O[C@H]1CN(C)Cc1ccc(Oc2ccccc2)cc1
- cytotoxicity call (HSkMC): inactive
- growth inhibition call (S. aureus RN4220): inactive

SMILES: COc1ccc(S(=O)(=O)N(C)C[C@@H]2Oc3cc(-c4ccccc4OC)ccc3S(=O)(=O)N([C@H](C)CO)C[C@H]2C)cc1
- cytotoxicity call (HSkMC): inactive
- growth inhibition call (S. aureus RN4220): inactive

SMILES: Cc1cc2nc3c(=O)[nH]c(=O)nc-3n(C[C@@H](O)[C@@H](O)[C@@H](O)CO)c2cc1C
- cytotoxicity call (HSkMC): inactive
- growth inhibition call (S. aureus RN4220): inactive

SMILES: C[C@H](CO)N1C[C@H](C)[C@H](CN(C)CC2CCCCC2)OCCCC[C@H](C)Oc2ccc(NC(=O)CCCN(C)C)cc2C1=O
- cytotoxicity call (HSkMC): inactive
- growth inhibition call (S. aureus RN4220): inactive

SMILES: C[C@H](CO)N1C[C@H](C)[C@H](CN(C)Cc2ccccc2)OCCCC[C@H](C)Oc2ccc(NS(=O)(=O)c3ccc(Cl)cc3)cc2C1=O
- cytotoxicity call (HSkMC): inactive
- growth inhibition call (S. aureus RN4220): inactive

SMILES: CC(C)NC(=O)Nc1ccc2c(c1)C(=O)N([C@H](C)CO)C[C@H](C)[C@H](CN(C)Cc1ccc(C(F)(F)F)cc1)OCCCC[C@H](C)O2
- cytotoxicity call (HSkMC): inactive
- growth inhibition call (S. aureus RN4220): inactive

SMILES: CNC[C@H]1OCCCC[C@@H](C)Oc2ccc(NS(=O)(=O)c3cn(C)cn3)cc2C(=O)N([C@@H](C)CO)C[C@H]1C
- cytotoxicity call (HSkMC): inactive
- growth inhibition call (S. aureus RN4220): inactive

SMILES: C[C@H](CO)N1C[C@H](C)[C@H](CN(C)Cc2ccc(Cl)c(Cl)c2)Oc2c(NC(=O)Nc3cccc4ccccc34)cccc2C1=O
- cytotoxicity call (HSkMC): inactive
- growth inhibition call (S. aureus RN4220): inactive

SMILES: Cc1noc(C)c1NC(=O)N(C)C[C@H]1Oc2ccc(NS(C)(=O)=O)cc2C(=O)N([C@H](C)CO)C[C@H]1C
- cytotoxicity call (HSkMC): inactive
- growth inhibition call (S. aureus RN4220): inactive

SMILES: C[C@@H]1CN([C@@H](C)CO)C(=O)c2cc(NC(=O)CCN3CCOCC3)ccc2O[C@@H]1CN(C)Cc1ccncc1
- cytotoxicity call (HSkMC): inactive
- growth inhibition call (S. aureus RN4220): inactive

SMILES: NS(=O)(=O)c1ccccc1
- cytotoxicity call (HSkMC): inactive
- growth inhibition call (S. aureus RN4220): inactive

SMILES: C[C@H]1COC(=O)[C@H](Cc2ccc(F)cc2)CC=CC[C@@H](CC(=O)N[C@H](CO)Cc2ccccc2)C(=O)N1
- cytotoxicity call (HSkMC): inactive
- growth inhibition call (S. aureus RN4220): inactive

SMILES: CC(C)N1CC=C[C@@]23O[C@@H]4C=CCOC(=O)[C@@H]4[C@H]2C(=O)N(CCCCCO)[C@@H]3C1=O
- cytotoxicity call (HSkMC): inactive
- growth inhibition call (S. aureus RN4220): inactive

SMILES: Cc1ccc(S(=O)(=O)N(C)C[C@@H]2Oc3cc(C#Cc4ccccc4)ccc3S(=O)(=O)N([C@H](C)CO)C[C@H]2C)cc1
- cytotoxicity call (HSkMC): inactive
- growth inhibition call (S. aureus RN4220): inactive

SMILES: C=CCC[C@H](Cc1ccc(F)cc1)C(=O)O[C@@H](CNC(=O)[C@H](CC=C)CC(=O)N(CCO)Cc1ccccc1)c1ccccc1
- cytotoxicity call (HSkMC): inactive
- growth inhibition call (S. aureus RN4220): inactive

SMILES: NNC(=O)[C@@H](N)Cc1ccccc1
- cytotoxicity call (HSkMC): inactive
- growth inhibition call (S. aureus RN4220): inactive

SMILES: C[C@H]1CN([C@@H](C)CO)C(=O)c2cccc(NC(=O)c3nc4ccccc4s3)c2O[C@H]1CN(C)S(=O)(=O)c1cn(C)cn1
- cytotoxicity call (HSkMC): active
- growth inhibition call (S. aureus RN4220): inactive

SMILES: N=C(N=C(N)N)Nc1ccccc1
- cytotoxicity call (HSkMC): inactive
- growth inhibition call (S. aureus RN4220): inactive

SMILES: C[C@@H]1CN([C@@H](C)CO)C(=O)c2cc(NS(=O)(=O)c3ccc(Cl)cc3)ccc2O[C@@H](C)CCCCO[C@H]1CN(C)C(=O)CCC(F)(F)F
- cytotoxicity call (HSkMC): inactive
- growth inhibition call (S. aureus RN4220): inactive

SMILES: CCN(CCCc1ccccc1)CCCc1ccccc1.O=C(O)CC(O)(CC(=O)O)C(=O)O
- cytotoxicity call (HSkMC): inactive
- growth inhibition call (S. aureus RN4220): inactive

SMILES: C[C@H](CO)N1C[C@H](C)[C@@H](CN(C)C(=O)CCC(F)(F)F)OCCCC[C@H](C)Oc2ccc(NC(=O)c3ccccc3)cc2C1=O
- cytotoxicity call (HSkMC): inactive
- growth inhibition call (S. aureus RN4220): inactive

SMILES: O=C(COP(=O)(O)O)[C@H](O)[C@@H](O)COP(=O)(O)O
- cytotoxicity call (HSkMC): inactive
- growth inhibition call (S. aureus RN4220): inactive

SMILES: CO[C@@H]1CN(C)C(=O)c2cc(NC(C)=O)ccc2OC[C@@H](C)N(S(=O)(=O)c2cn(C)cn2)C[C@H]1C
- cytotoxicity call (HSkMC): inactive
- growth inhibition call (S. aureus RN4220): inactive
